Laboratory results: the supplement of paper PMC10670038
Counter-ions that a name gives are not always drawn. ± gives the standard deviation of the averaged measurements. In all, about 2,000 compounds were measured (“relative cell viability vs DMSO, compound + 0.2 uM CuET”: median about 1, lowest 2% from about 0.25 on). Some of the results follow.

Test system: TE10
Test: relative cell viability vs DMSO, compound + 0.2 uM CuET (fraction); TE10 is an esophageal squamous carcinoma line; higher = less cytotoxic
Settings: 2 µM; co-treatment: CuET (bis(diethyldithiocarbamate)copper) 0.2 uM; 48 h
Procedure: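 TE10 ESCC cells (1,000/well, 384-well plates) were treated with Selleck bioactive library compounds at 2 uM combined with 0.2 uM CuET (copper diethyldithiocarbamate) for 48 h. Viability was read by CellTiter-Glo and expressed relative to DMSO wells. Two technical replicates (A, B).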

| Structure (SMILES) | relative cell viability |
| --- | --- |
| COc1cc(-c2cc(-c3ccc(N4CCNCC4)cc3)cnc2C)cc(OC)c1OC | 0.87 ± 0.053 |
| Nc1ccccc1NC(=O)c1ccc(CNc2nccc(-c3cccnc3)n2)cc1 [Mocetinostat (MGCD0103)] | 0.249 ± 0.039 |
| CC[C@H](C)C(=O)O[C@H]1C[C@H](O)C=C2C=C[C@H](C)[C@H](CC[C@@H](O)C[C@@H](O)CC(=O)O)[C@H]21 [Pravastatin sodium] | 0.813 ± 0.099 |
| CC1=C(C(=O)O)N2C(=O)[C@@H](NC(=O)[C@H](N)c3ccccc3)[C@H]2SC1 [Cephalexin] | 1.31 ± 0.071 |
| CCC(CC)(NC(=O)C(C)C)C(=O)N[C@@H](CCCN=C(N)N)C(=O)NC1(C(=O)NC(c2ccc(F)cc2)c2ccc(F)cc2)CCCC1 | 1.01 ± 0.04 |
| O=C(O)Cc1cc(I)c(Oc2ccc(O)c(I)c2)c(I)c1 [Tiratricol] | 1.14 ± 0.1 |
| Cc1cc(Nc2ncc(Cl)c(Nc3ccccc3S(=O)(=O)C(C)C)n2)c(OC(C)C)cc1C1CCNCC1 | 0.566 ± 0.12 |
| C[C@@H](Oc1cc(-c2cnn(C3CCNCC3)c2)cnc1N)c1c(Cl)ccc(F)c1Cl | 1.05 ± 0.011 |
| NS(=O)(=O)C#Cc1ccccc1 [Pifithrin-μ] | 0.291 ± 0.042 |
| CNCC[C@@H](Oc1ccccc1C)c1ccccc1 [Atomoxetine HCl] | 0.978 ± 0.08 |
| Cc1ccc(C(=O)C(C)CN2CCCCC2)cc1 (stereo unspecified) [Tolperisone HCl] | 1.025 ± 0.0064 |
| Nc1ncnc2c1nc(Br)n2[C@@H]1O[C@@H]2COP(=O)(O)O[C@H]2[C@H]1O [8-Bromo-cAMP] | 0.902 ± 0.043 |
| CCCCC1C(=O)N(c2ccccc2)N(c2ccccc2)C1=O [Phenylbutazone] | 1.09 ± 0.061 |
| CN(C)c1cc(NC(=O)CNC(C)(C)C)c(O)c2c1CC1CC3C(N(C)C)C(=O)C(C(N)=O)=C(O)C3(O)C(=O)C1=C2O (stereo unspecified) [Tigecycline] | 0.994 ± 0.068 |
| COc1cc2ncnc(Nc3ccc(F)c(Cl)c3)c2cc1NC(=O)/C=C/CN1CCCCC1 | 0.829 ± 0.029 |
| CC1=CC(=O)c2ccccc2C1=O [Menadione] | 0.671 ± 0.13 |
| CC(=O)/N=c1/sc(S(N)(=O)=O)nn1C [Methazolamide] | 1.06 ± 0.042 |
| Cc1ccc(C(=O)N(CCCN)[C@@H](c2nc3cc(Cl)ccc3c(=O)n2Cc2ccccc2)C(C)C)cc1 | 0.983 ± 0.024 |
| CCCc1nc2c(C)cc(-c3nc4ccccc4n3C)cc2n1Cc1ccc(-c2ccccc2C(=O)O)cc1 [Telmisartan] | 1.03 ± 0.15 |
| COCCCOc1cc(C[C@@H](C[C@H](N)[C@@H](O)C[C@H](C(=O)NCC(C)(C)C(N)=O)C(C)C)C(C)C)ccc1OC [Aliskiren Hemifumarate] | 1.21 ± 0.045 |
| CO/N=C(\C(=O)N[C@@H]1C(=O)N2C(C(=O)O)=C(CSC(=O)c3ccco3)CS[C@H]12)c1csc(N)n1 [Ceftiofur HCl] | 0.995 ± 0.042 |
| CN1[C@@H]2CC[C@H]1C[C@@H](OC(c1ccccc1)c1ccccc1)C2 [Benztropine mesylate] | 1.0299 ± 0.00025 |
| C[C@@H]1O[C@@H](OC[C@H]2O[C@@H](Oc3c(-c4ccc(O)c(O)c4)oc4cc(O)cc(O)c4c3=O)[C@H](O)[C@@H](O)[C@@H]2O)[C@H](O)[C@H](O)[C@H]1O [Rutin] | 1.21 ± 0.018 |

| Structure (SMILES) | relative cell viability |
| --- | --- |
| COc1ccnc2[nH]cc(C(=O)C(=O)N3CCN(C(=O)c4ccccc4)C[C@H]3C)c12 | 1.18 ± 0.065 |
| CCCC(=O)Nc1ccc(OCC(O)CNC(C)C)c(C(C)=O)c1 (stereo unspecified) [Acebutolol HCl] | 1.24 ± 0.31 |
| CC(C)(C)OC(=O)N[C@H]1CCCCC/C=C\[C@@H]2C[C@@]2(C(=O)NS(=O)(=O)C2CC2)NC(=O)[C@@H]2C[C@@H](OC(=O)N3Cc4cccc(F)c4C3)CN2C1=O [Danoprevir (ITMN-191)] | 1.19 ± 0.02 |
| NC(=O)Nc1sc(-c2ccc(F)cc2)cc1C(N)=O | 1.2 ± 0.077 |
| C[C@H](CCC(=O)O)[C@H]1CC[C@H]2[C@@H]3C[C@H](O)[C@@H]4C[C@H](O)CC[C@]4(C)[C@H]3CC[C@]12C [Hyodeoxycholic acid (HDCA)] | 1.21 ± 0.052 |
| N=C(N)c1ccc(N=NNc2ccc(C(=N)N)cc2)cc1 [Diminazene Aceturate] | 1.41 ± 0.38 |
| C[C@@H]1O[C@@H](O[C@H]2[C@H](Oc3cc(O)c4c(c3)O[C@H](c3ccc(O)cc3)CC4=O)O[C@H](CO)[C@@H](O)[C@@H]2O)[C@H](O)[C@H](O)[C@H]1O [Naringin] | 1.063 ± 0.0016 |
| Cn1cc(C2=C(c3cn(CCCSC(=N)N)c4ccccc34)C(=O)NC2=O)c2ccccc21 [Ro 31-8220 Mesylate] | 0.827 ± 0.022 |
| N[C@@H](CC(=O)N1CCn2c(nnc2C(F)(F)F)C1)Cc1cc(F)c(F)cc1F [Sitagliptin phosphate monohydrate] | 1.07 ± 0.012 |
| Cn1cc(/C=C/C(=O)c2cccc(F)c2)cc1/C=C/C(=O)NO | 0.872 ± 0.12 |
| Cc1nc(N(C)C(=O)Cc2ccc(-c3ccccn3)cc2)sc1S(N)(=O)=O [Pritelivir (BAY 57-1293)] | 1.26 ± 0.18 |
| Nc1nccc2c1ncn2C1C=C(CO)C(O)C1O (stereo unspecified) [3-Deazaneplanocin A (DZNeP)] | 0.82 ± 0.011 |
| COc1nc(C)cnc1NS(=O)(=O)c1cccnc1-c1ccc(-c2nnco2)cc1 [Zibotentan (ZD4054)] | 1.28 ± 0.12 |
| C/C(O)=C(\C#N)C(=O)Nc1ccc(C(F)(F)F)cc1 [Teriflunomide] | 1.03 ± 0.015 |
| Nc1ccn([C@@H]2O[C@H](CO)[C@@H](O)[C@H]2O)c(=O)n1 [Cytidine] | 1.16 ± 0.047 |
| CC(C)NCCCn1c(Sc2cc3c(cc2I)OCO3)nc2c(N)ncnc21 | 0.745 ± 0.093 |
| Cc1cccc(Nc2nc(-c3ccncc3)cs2)c1 | 1.17 ± 0.17 |
| CN(C)CCC(c1ccccc1)c1ccccn1 (stereo unspecified) [Pheniramine Maleate] | 1.05 ± 0.15 |
| Cc1c(O)cccc1C(=O)N[C@@H](CSc1ccccc1)[C@H](O)CN1C[C@H]2CCCC[C@H]2C[C@H]1C(=O)NC(C)(C)C [Nelfinavir Mesylate] | 0.97 ± 0.16 |
| O=c1cc(CN2CCOCC2)occ1OCCCCCSc1ccnc2cc(C(F)(F)F)ccc12 | 1.13 ± 0.024 |
| O[C@@H]1CO[C@H]2[C@@H]1OC[C@@H]2O [Isosorbide] | 1.13 ± 0.051 |
| CCOc1ccc(Cc2cc([C@@H]3O[C@H](CO)[C@@H](O)[C@H](O)[C@H]3O)ccc2Cl)cc1 [Dapagliflozin] | 0.908 ± 0.041 |
| CN(C)CCN1C(=O)c2cccc3cc(N)cc(c23)C1=O [Amonafide] | 1.042 ± 0.0065 |
